Some of the results follow.
What was measured:
Assay in all cases: glycan array binding signal (z-score within array); higher = stronger binding
Conditions in all cases: glycan notation: IUPAC condensed, linker removed
Glc(b1-6)Glc = target: Glc(b1-6)Glc
In short: (§1)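 Arrays were curated from the Consortium for Functional Glycomics database, 3228 in total, and kept only where the protein sequence was available. Binding is expressed as a within-array Z-score. This score was averaged across arrays of the same protein sequence at different concentrations or buffers and across linkers, and negative values can be read as non-binding.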

GlcA(b1-3)Gal = target: GlcA(b1-3)Gal
In short: as §1

GlcA(b1-3)GlcNAc = target: GlcA(b1-3)GlcNAc
In short: as §1

GlcA(b1-6)Gal = target: GlcA(b1-6)Gal
In short: as §1

[1] = target: GlcA3S(b1-3)Gal(b1-4)GlcNAc(b1-2)Man
In short: as §1

[2] = target: GlcA3S(b1-3)Gal(b1-4)GlcNAc(b1-3)Gal(b1-4)Glc
In short: as §1

[3] = target: GlcNAc(a1-3)Gal(b1-4)GlcNAc
In short: as §1

[4] = target: GlcNAc(a1-4)Gal(b1-3)GlcNAc
In short: as §1

[5] = target: GlcNAc(a1-4)Gal(b1-4)GalNAc
In short: as §1

[6] = target: GlcNAc(a1-4)Gal(b1-4)GlcNAc
In short: as §1

[7] = target: GlcNAc(a1-4)Gal(b1-4)GlcNAc(b1-3)Gal(b1-4)Glc
In short: as §1

[8] = target: GlcNAc(a1-4)Gal(b1-4)GlcNAc(b1-3)Gal(b1-4)GlcNAc
In short: as §1

[9] = target: GlcNAc(a1-4)Gal(b1-4)GlcNAc(b1-3)Gal(b1-4)GlcNAc(b1-3)Gal(b1-4)GlcNAc
In short: as §1

[10] = target: GlcNAc(a1-4)Gal(b1-4)GlcNAc(b1-3)Gal(b1-4)[Fuc(a1-3)]GlcNAc(b1-3)Gal(b1-4)[Fuc(a1-3)]GlcNAc
In short: as §1

[11] = target: GlcNAc(a1-6)Gal(b1-4)GlcNAc
In short: as §1

[12] = target: GlcNAc(b1-2)Gal(b1-3)GalNAc
In short: as §1

[13] = target: GlcNAc(b1-2)Man(a1-3)[GlcNAc(b1-2)Man(a1-6)]Man(b1-4)GlcNAc(b1-4)GlcNAc
In short: as §1

[14] = target: GlcNAc(b1-2)Man(a1-3)[GlcNAc(b1-2)Man(a1-6)]Man(b1-4)GlcNAc(b1-4)[Fuc(a1-6)]GlcNAc
In short: as §1

[15] = target: GlcNAc(b1-2)Man(a1-3)[GlcNAc(b1-4)][GlcNAc(b1-2)Man(a1-6)]Man(b1-4)GlcNAc(b1-4)GlcNAc
In short: as §1

[16] = target: GlcNAc(b1-2)Man(a1-3)[GlcNAc(b1-4)][GlcNAc(b1-2)Man(a1-6)]Man(b1-4)GlcNAc(b1-4)[Fuc(a1-6)]GlcNAc
In short: as §1

[17] = target: GlcNAc(b1-2)[GlcNAc(b1-4)]Man(a1-3)[GlcNAc(b1-2)Man(a1-6)]Man(b1-4)GlcNAc(b1-4)GlcNAc
In short: as §1

[18] = target: GlcNAc(b1-2)[GlcNAc(b1-4)]Man(a1-3)[GlcNAc(b1-4)][GlcNAc(b1-2)Man(a1-6)]Man(b1-4)GlcNAc(b1-4)GlcNAc
In short: as §1

B1: CLECb-Precomplexed (Mus musculus), P43025 (protein)
chain: MAKNGLVLCILVVSLLLDQTDGYPSRMKARKHSKRRVKAKDDDLKSQVEKLWREVNALKEMQALQTVCLRGTKVHKKCYLASEGLKHYHEANEDCISKGGTLVVPRNSDEINALRDYGKRSLPGVNDFWLGINDMVTEGKFLDVHGFAVSFLNWDRAQPSGGKRENCVLFSQSAQGKWSDEACRSSKRYICEFIIPTRTRPLEQKLISEEDLAANDILDYKDDDDKV
- glycan array binding signal (z-score) (Glc(b1-6)Glc): -0.261
- glycan array binding signal (z-score) (GlcA(b1-3)Gal): -0.348
- glycan array binding signal (z-score) (GlcA(b1-3)GlcNAc): -0.187
- glycan array binding signal (z-score) (GlcA(b1-6)Gal): -0.685
- glycan array binding signal (z-score) [1]: -0.481
- glycan array binding signal (z-score) [2]: -0.603
- glycan array binding signal (z-score) [3]: -0.6
- glycan array binding signal (z-score) [4]: -0.272
- glycan array binding signal (z-score) [5]: 0.1
- glycan array binding signal (z-score) [6]: -0.387
- glycan array binding signal (z-score) [7]: -0.353
- glycan array binding signal (z-score) [8]: -0.295
- glycan array binding signal (z-score) [9]: 0.019
- glycan array binding signal (z-score) [10]: 0.063
- glycan array binding signal (z-score) [11]: -0.456
- glycan array binding signal (z-score) [12]: -0.071
- glycan array binding signal (z-score) [13]: -0.332
- glycan array binding signal (z-score) [14]: -0.116
- glycan array binding signal (z-score) [15]: -0.373
- glycan array binding signal (z-score) [16]: 0.065
- glycan array binding signal (z-score) [17]: -0.479
- glycan array binding signal (z-score) [18]: -0.064

Source: the supplement of paper PMC8728848
